Drawing on ChEMBL document CHEMBL1157539, “Thousands of chemical starting points for antimalarial lead identification” (Nature, 2010), this text covers IFI for 26 compounds.

Where “and” joins values, the source holds several entries; their conditions need not be identical. Equal entries are not always repeated. In all, about 13,000 compounds were measured (“IFI”: median about 4, highest 2% from about 17 on). Some of the results follow.

This assay can be described thus: GSK_TCMDC: Inhibition Frequency Index (IFI). The number of non-kinase HTS assays where a compound showed > 50 % inhibition, expressed as a percentage of the number of such assays in which the compound was tested (-0 is zero). The format is functional.
`CN1CCN(CC(=O)Nc2cccc(-c3cccc(-c4nc5cc(C(F)(F)F)ccc5[nH]4)c3)c2)CC1` had an IFI of 3.6%. To `COc1nc2c(N3CCN(CCNCc4ccc5c(n4)NC(=O)CS5)CC3)ccnc2cc1F` belongs 2.4%; to `COCc1cccc(-c2cc(-c3ccc(S(C)(=O)=O)cc3)cnc2N)c1`, -0%. As for `CN(C)CCNc1ncnc2c1[nH]c1ccc(Cl)cc12`, the IFI is -0%. Next, `COc1ccccc1CNC(=O)c1cc(Br)cc(N2CCN(c3ccncc3)CC2)c1`: 9.38%; `N#Cc1ccc2c(c1)CN(CC[C@H]1CC[C@H](NC(=O)/C=C/c3c[nH]c4ccccc34)CC1)CC2`: 0.76% and 3.01%.

`COc1ccc(-c2nonc2NC(=O)c2ccc(OC(C)C)cc2)cc1OC` came in with an IFI of 3.45%. To `COCCNCc1ncsc1-c1ccc2c(Nc3cc(O)ccc3C)ccnc2c1` belongs 3.55%. To `Cc1cccc(C(=O)Nc2ccnc(N3CCCN(Cc4cccc(O)c4)CC3)c2)c1` belongs 5.26%. In turn, `CN1CCN(CC(=O)Nc2cccc(-c3cccc(-c4nc5ccccc5[nH]4)c3)c2)CC1` returned an IFI of 1.8%. Next, `CN1CCN(c2ccnc3ccc(NC(=O)Nc4ccc5c(c4)CCC5=O)cc23)CC1`: 2.05%; `O=C(/C=C/c1ccc(Cl)c(Cl)c1)NCCCCCN1CCC(NC(=O)Nc2ccc(F)cc2F)CC1`: 6.54%; `Fc1ccc(-c2cncc(-c3ccc(F)cc3)n2)cc1`: -0%. On to `Cn1c(N)c(N=O)c(=O)[nH]c1=O`, for which the IFI was determined as 1.41%.

As to `CC(C)c1ccc(CN2CCC(CNC(=O)c3cc(-c4ccccc4F)cs3)C2)cc1` (stereo unspecified), the IFI was 14.3%. Next, `O=C(NCC1CCN(Cc2cccc(C(F)(F)F)c2)C1)c1cc(-c2cccc(Cl)c2)cs1` (stereo unspecified): 1.89%; `CCNC(=O)Nc1ccc(N(C)c2ccnc(NC3CC3)n2)cc1`: 2.97%. In turn, `COc1cc(CNCCCCCCNCc2cc(OC)c3ccccc3c2OC)c(OC)c2ccccc12` showed an IFI of 17.3%. `O=C(C1CCN(C(c2ccccc2)c2ccc(Cl)c(Cl)c2)CC1)N1CC=CC1` (stereo unspecified): the IFI worked out at 2.74%.

Compound `CCOC(=O)c1ccc(NC(=O)NCCCC2CCCN(CCCCCNC(=O)/C=C/c3ccc(Cl)c(Cl)c3)C2)cc1` (stereo unspecified) gave an IFI of 8.63%. To `CC(CO)(CO)NCc1cc2c3ccccc3c(CNC(C)(CO)CO)cc2c2ccccc12` belongs 6.67%. Next, `Cc1cc(F)ccc1-c1nc(Nc2ccncc2)c2ccn(C)c2n1`: 2.82%. Take `Clc1ccc(Cl)c2[nH]c(CNCCCNc3nc4ccccc4[nH]3)cc12`: the IFI is 4.38%. To `Cc1ccccc1C1CCN(C2CCC(NC(=O)/C=C/c3cc(F)cc(F)c3)CC2)CC1` (stereo unspecified) belongs 6.56%; to `O=C(Nc1cccc(-c2nn3ccccc3c2-c2ccnc(Nc3cccc(C(F)(F)F)c3)n2)c1)c1c(F)cccc1F`, 5.41%. `COc1cc2nc(NCCc3ccccc3)nc(NCc3nccs3)c2cc1OC` displayed an IFI of 2.36%.
